# Out of some 420,000 compounds screened, about 64,000 (15%) were called active. Inconclusive results, whose numbers are uncertain, are shown with a selection of clear calls. Calls follow the shape of the dose curve; as a rule, active = well fitted inhibition curve with a large enough effect; inconclusive = small, poorly fitted or top-dose-only effect; inactive = flat fitted curve, though single readings scatter. Potencies of inconclusive entries are left out as doubtful fits.
# Assay: qHTS for Inhibitors of human tyrosyl-DNA phosphodiesterase 1 (TDP1): qHTS in cells in absence of CPT; also: nearly all actives have a fitted effect of over 55% in size
# Details: DT40 Tdp1-/- hTDP1 cells, no CPT, ATP luminescence, 48 h; activity change, negative = growth inhibition: at 46.2 µM (top of the series) unless noted
# How it was run: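 Chicken DT40 Tdp1-/- cells complemented with human TDP1, screened without camptothecin (DMSO vehicle only), 400 cells/well. Compounds pin-transferred, cells incubated at 37 °C for at least 48 hr. Growth read as ATP-dependent luminescence (CellTiter-Glo, 30 min at RT).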
# % is scaled to controls: 0 for no effect and ±100 for the full control effect; potency is read from the fitted curve at half-maximal effect; tags tell the direction and shape of the fitted curve.
SMILES,Potency,"activity change, negative = growth inhibition"
COc1ccc(OC)c(-c2nnc(-c3ccc(C)o3)o2)c1,"inconclusive [inhibitor, single point]",
Cc1nc2c(c3c1[nH]c1ccccc13)C(O)CC(C)(C)C2 (stereo not given),"inconclusive [inhibitor, single point]",
O=C(NCc1cccnc1)c1ccc(COc2cccc3ccccc23)o1,"inconclusive [inhibitor, single point]",
CCn1c(=O)c(-c2nc3ccccc3[nH]2)c(O)c2ccccc21,"inconclusive [inhibitor, single point]",
Cn1c(-c2ccc3c(c2)OCO3)cnc1NCc1ccccc1,"inconclusive [inhibitor, single point]",
Cc1ccc(N2CCN(C(=O)c3cccs3)CC2)c(C)c1,"inconclusive [inhibitor, partial curve]",
O=C(CSc1nnc(CNc2ccc(F)cc2)o1)c1ccccc1,"inconclusive [inhibitor, single point]",
C=CCn1c(=O)c(C(=O)NC(C)c2ccccc2)c(O)c2ccccc21 (stereo not given),inactive,
Cc1ccc(S(=O)(=O)Nc2ccccc2OC(C(=O)OC(C)(C)C)C(=O)OC(C)(C)C)cc1,active: 16.4 µM,
CCN(CC)C(=O)Cn1c(=O)c2ccccc2n2c(=S)sc(-c3cccc(C)c3)c12,"inconclusive [inhibitor, single point]",
CC(C)NC(=O)Cn1nnc(-c2ccccc2)c1COc1ccc2ccccc2c1,"inconclusive [inhibitor, single point]",
CCOc1ccc(CCNC(=O)c2cn(C)c3ccc(S(=O)(=O)N4CCCCC4)cc3c2=O)cc1OCC,"inconclusive [inhibitor, single point]",
O=C(NNS(=O)(=O)c1ccccc1F)c1cc(-c2ccccc2)n[nH]1,"inconclusive [inhibitor, full curve]",
COc1ccc(-c2n[nH]c3c2C(c2ccc(OC)c(OC)c2)N(c2ccccc2)C3=O)cc1 (stereo not given),"inconclusive [inhibitor, single point]",
Cc1ccc(Nc2nc(CSc3nnnn3C)cs2)cc1,"inconclusive [inhibitor, single point]",
CC1=C(c2ccc(C)c(C)c2)S(=O)(=O)NC1=NCc1ccccc1Cl,"inconclusive [inhibitor, single point]",
COc1ccc(Cn2c(CCC(=O)NCCC(C)C)nc3ncccc3c2=O)cc1,"inconclusive [inhibitor, single point]",
Cc1cc(C)c(NC(=O)c2sc3nc(C)cc(C)c3c2NC(=O)c2ccccc2)c(C)c1,"inconclusive [inhibitor, single point]",
O=C(Nc1ccc2ccccc2c1)c1ccc(Cl)cc1,inactive,
Cn1c(=O)c(C(=O)CSc2nncs2)c(N)n(Cc2ccccc2)c1=O,,inconclusive: -31.3% [inhibitor]
CCOC(=O)c1cccc(COC(=O)c2cccc(-c3nnc(-c4ccccc4)o3)c2)c1,active: 16.4 µM,
CC(C)(CNC(=O)c1ccccc1NS(C)(=O)=O)N1CCCCC1,inactive,
Cc1cccc(-n2c(C)cc(/C=N/O)c2C)c1,inactive,
COc1ccc(CNC(=O)C(=O)NCC2CCCN2S(=O)(=O)c2ccccc2)cc1 (stereo not given),"inconclusive [inhibitor, single point]",

SMILES,Potency,"activity change, negative = growth inhibition"
CCCc1cc(-c2[nH]ncc2-c2ccc(C(=O)OCC)o2)c(O)cc1O,"inconclusive [inhibitor, partial curve, poor fit]",
CCc1nnc(NC(=O)c2cc(S(=O)(=O)N(CC)CC)ccc2Cl)s1,inactive,
Cc1ccc(NC(=O)COC(=O)/C(=C/c2cccs2)c2cccs2)cc1S(=O)(=O)N(C)C,active: 14.6 µM,
O=C(c1ccccn1)N1N=C2/C(=C/c3ccc(F)cc3)CCCC2C1c1ccc(F)cc1 (stereo not given),"inconclusive [inhibitor, single point]",
CCc1cc(OCCCSc2nc(C)cc(=O)[nH]2)ccc1Cl,"inconclusive [inhibitor, single point]",
COc1ccc(-c2csc(Cc3nnc(N4CCOCC4)n3-c3ccccc3)n2)cc1,"inconclusive [inhibitor, single point]",
CN(CC(=O)NC1CC(C)(C)NC(C)(C)C1)S(=O)(=O)c1cc(Cl)ccc1Cl,inactive,
CCc1ccc(NCc2cc3c(C)nn(-c4ccccc4)c3[nH]c2=O)cc1,active: 12.6 µM,
Cc1ccc(S(=O)(=O)n2c(=O)oc3ccccc32)cc1,inactive,
CCOc1ccccc1-c1cc(C(=O)N/N=C/c2ccc(O)c(OC)c2)c2ccccc2n1,active: 0.58 µM,
COC(=O)[C@@]1(Cc2ccc(F)cc2)[C@H]2c3cc(C(=O)N4CCCC4)n(Cc4cc(C)n(C)n4)c3C[C@H]2CN1C(=O)c1ccccc1,active: 16.4 µM,
O=C(CNC(=O)c1ccc(F)cc1)OCc1cc(=O)n2nc(C3CC3)sc2n1,inactive,
Cc1cc(F)ccc1NCc1ccc([N+](=O)[O-])cc1,inactive,
COC(=O)c1ccc(S(=O)(=O)N2CCCCCC2)n1C,"inconclusive [inhibitor, single point]",
O=C(N[C@@H](Cc1ccccc1)C(=O)OCc1ccccc1)c1nc[nH]c1C(=O)N1CCc2ccccc2C1,"inconclusive [inhibitor, single point]",
CC(C)CNC(=O)c1coc(=O)c(Br)c1,active: 0.82 µM,
COc1cccc(-n2c(=O)[nH]cc(C(=O)Nc3ccc4c(c3)OCCO4)c2=O)c1,inactive,
CCOC(=O)C(=CNc1ccc(C)cc1C)C(=O)OCC,active: 16.4 µM,
Cc1ccc(S(=O)(=O)N2CCN(C(=O)COC(=O)c3oc4ccccc4c3C)CC2)cc1,"inconclusive [inhibitor, single point]",
CCCCCC(=O)Nc1cccc(C2=NOC3(C2)C[C@@H](C(N)=O)N(C(=O)CC(c2ccccc2)c2ccccc2)C3)c1 (stereo not given in full),"inconclusive [inhibitor, single point]",
CC1Cc2c([nH]c3ccccc23)C2c3ccccc3CN12 (stereo not given),"inconclusive [inhibitor, single point]",
COc1cc(NS(=O)(=O)c2ccc(NC(=O)C34CC5CC(CC(C5)C3)C4)cc2)ncn1,"inconclusive [inhibitor, partial curve]",
O=c1[nH]c(NC2CCN(S(=O)(=O)c3ccccc3C(F)(F)F)CC2)nc2c1CCCC2,active: 7.31 µM,
N#CCC(=O)Nn1c(=S)[nH]c2ccccc2c1=O,inactive,

SMILES,Potency,"activity change, negative = growth inhibition"
COc1ccc(S(=O)(=O)N2CCOC2CNC(=O)C(=O)NCCc2ccc(S(N)(=O)=O)cc2)cc1 (stereo not given),inactive,
Cc1ccc(C#N)c(SCC(=O)Nc2nccs2)n1,"inconclusive [inhibitor, full curve]",
COc1ccc(Cc2nc(-c3cccs3)no2)cc1OC,,inconclusive: -30.3% [inhibitor]
COC(=O)CN1C(=O)CSc2ccc(S(=O)(=O)Nc3cc(C)ccc3C)cc21,"inconclusive [inhibitor, single point]",
Cc1nn(Cc2ccccc2)c(Cl)c1/C=N/NC(=O)c1cccnc1,"inconclusive [inhibitor, single point]",
COc1cc(OC)cc(C2=Cc3ccccc3C(CC(=O)c3ccco3)N2c2ccc(-c3cncnc3)cc2)c1 (stereo not given),"inconclusive [inhibitor, single point]",
Cc1ccc(NS(=O)(=O)c2cc(OCC(N)=O)c(C)cc2Cl)cc1,"inconclusive [inhibitor, single point]",
CCC(=O)Nc1cccc(NC(=O)c2ccc(C)cc2Cl)c1,inactive,
COc1cccc(-c2nc(C(=O)NCCCN3CCOCC3)cc3c2[nH]c2ccccc23)c1,active: 8.2 µM,
Cc1c(C(=O)Nc2cccc(C(F)(F)F)c2)oc2ccc3c(c12)C(=O)CC(C)(C)O3,"inconclusive [inhibitor, partial curve, poor fit]",
COC(=O)[C@]12CCCCC=C1N(Cc1ccc3c(c1)OCO3)C(=O)[C@H](CC(=O)NCc1cccc3ccccc13)C2,"inconclusive [inhibitor, single point]",
C=CCN1C(=O)C(CC(=O)Nc2ccc(OCC)cc2)N(Cc2ccccn2)C1=S (stereo not given),"inconclusive [inhibitor, single point]",
CCc1ccc(S(=O)(=O)Nc2cc3c(C(=O)OCc4ccccc4)c(C)oc3c3ccccc23)cc1,"inconclusive [inhibitor, partial curve, poor fit]",
C#CC[N+](C)(C)CCCCCCCCCCCC,active: 0.651 µM,
Cc1ccc(C(=O)Nc2ccccc2C(=O)O)cc1S(=O)(=O)Nc1ccc(Br)cc1,,inconclusive: -31.5% [inhibitor]
O=C(c1csnn1)N1CCC2(CCN(Cc3nccs3)CC2)CC1,inactive,
COc1ccccc1CCc1nnc(CCC(=O)N(C)Cc2cccc3cnccc23)o1,active: 23.1 µM,
O=C(CCNS(=O)(=O)c1c(Cl)cccc1Cl)OCC(=O)c1ccccc1,inactive,
CCn1c(C)nnc1SCC(=O)Nc1ccc(OC)cc1,inactive,
Cc1ccc(S(=O)(=O)Cc2ccc(C(=O)NC3CCCC3)o2)cc1,inactive,
CN1CCN(CCCCOc2ccccc2C=O)CC1,"inconclusive [inhibitor, single point]",
CC(=O)c1sc2nc(-c3cccs3)ccc2c1N,inactive,
